# From the supplement of paper PMC10600219
# Where “and” joins values, the source holds several entries; their conditions need not be identical. Identical values can stand only once. Counter-ions that a name gives are not always drawn. The full ranking holds about 2,800 compounds; the median of “cell viability relative to vehicle” is about 0.98, and the lowest 2% start at about 0.45. The list shows a part of the results.
# Test system: NCI-H2228 alectinib-DTP
# Assay: cell viability relative to vehicle (fraction of vehicle); NCI-H2228 is an ALK-positive lung cancer line and DTP means drug-tolerant persister; higher = less growth inhibition
# Details: 100 nM; treatment time 6 days
# Procedure, shortened: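 Each value is viability relative to vehicle-treated cells, measured as ATP with the CellTiter-Glo 3D Cell Viability Assay. Parental NCI-H2228 cells and drug-tolerant persisters (1000 nM targeted drug, 13 days) in 384-well plates received the 3114-agent TargetMol anti-cancer compound library at 100 nM, or DMSO, and were read 6 days later.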
row,SMILES,cell viability
1,O=C(O)c1ccc(-c2ccc(C=C3SC(=S)N(Cc4ccccc4)C3=O)o2)cc1 [Leukadherin-1],0.909
2,CCN(CC)CCNC(=O)c1ccc(N)cc1 [Procainamide hydrochloride],1.16
3,NC[C@H](O)c1ccc(O)c(O)c1 [Noradrenaline bitartrate monohydrate],1.06
4,NC[C@H](O)c1ccc(O)c(O)c1 [Noradrenaline bitartrate],0.863
5,CCc1cnc(N2CCC(c3nc(COc4ccc(-n5cnnn5)cc4)cs3)CC2)nc1,0.83
6,O=C1O[C@H]([C@@H](O)CO)C([O-])=C1O.[Na+] [Sodium ascorbate],0.928
7,O=[N+]([O-])c1ccc(Nc2nc(N3CCOCC3)nc(N3CCOCC3)n2)cc1,1.19
8,CCOC(=O)C1=C(N)Oc2ccc(Br)cc2C1C(C#N)C(=O)OCC (configuration not stated),1.06
9,Cc1cc(C(C)Nc2ccccc2)c2nc(N3CCOCC3)cc(=O)n2c1 (configuration not stated),0.852
10,N[C@H]1CC[C@H](N[C@@H]2C[C@H]2c2ccccc2)CC1,0.998
11,COc1c(Nc2ncc(Cl)c(N[C@H]3[C@@H](C(N)=O)[C@@H]4C=C[C@H]3C4)n2)ccc2c1CC[C@@H](N1CCOCC1)CC2,0.958
12,CC(=O)Nc1nnc(S(N)(=O)=O)s1 [Acetazolamide],0.916
13,Nc1nc(OCc2cc(Br)cs2)c2[nH]cnc2n1 [Lomeguatrib],0.921
14,Cc1cc(Nc2cc(N3CCN(C)CC3)nc(Sc3ccc(NC(=O)C4CC4)cc3)n2)n[nH]1 [Tozasertib],0.762
15,Clc1ccc2nsnc2c1NC1=NCCN1 [Tizanidine hydrochloride],1.02
16,CC1(C)CN(C(=O)c2ccc(-c3cccc4nc(NC(=O)C5CC5)nn34)cc2)C1 [Solcitinib],1.04
17,O=C(O)CC(C(=O)O)n1c(O)c(C2=c3cc(Br)ccc3=NC2=O)sc1=S (configuration not stated),1.04
18,COc1ccc(-c2cc(=O)c3c(O)c(OC)c(O)cc3o2)cc1OC [Eupatilin],1.1
19,CO/N=C(\C(=O)N[C@@H]1C(=O)N2C(C(=O)O)=C(COC(C)=O)CS[C@H]12)c1csc(N)n1 [Cefotaxime sodium],0.897
20,COc1cc(CNC(=O)CCCC/C=C/C(C)C)ccc1O [Capsaicin],1.12
21,C[C@]12CC[C@@H]3c4ccc(O)cc4C[C@@H](CCCCCCCCC[S+]([O-])CCCC(F)(F)C(F)(F)F)[C@H]3[C@@H]1CC[C@@H]2O (some centres not stated) [Fulvestrant],1.18

row,SMILES,cell viability
1,C[C@H]1CC[C@@]2(OC1)O[C@H]1C[C@H]3[C@@H]4CC[C@@H]5C[C@@H](O)CC[C@]5(C)[C@H]4CC[C@]3(C)[C@H]1[C@@H]2C [Sarsasapogenin],0.968
2,CCS(=O)(=O)c1cccc(-c2cc(C(=O)NC3CCN(C)CC3)c(C)c3[nH]c4ncc(C)cc4c23)c1,0.755
3,O=C(/C=C/c1ccc(O)c(O)c1)O[C@H](Cc1ccc(O)c(O)c1)C(=O)O [Rosmarinic acid],1
4,NC(=O)C1CCCc2c1[nH]c1ccc(Cl)cc21 (configuration not stated) [Selisistat],1
5,CCC1(c2ccccc2)C(=O)NCNC1=O [Primidone],1.08
6,COc1ccc(C(c2c[nH]c3ccccc23)c2c[nH]c3ccccc23)cc1,1.04
7,CCCCc1oc2ccc(NS(C)(=O)=O)cc2c1C(=O)c1ccc(OCCCN(CCCC)CCCC)cc1 [Dronedarone hydrochloride],1.13
8,COc1cc(Nc2c(C#N)cnc3cc(OCCCN4CCN(C)CC4)c(OC)cc23)c(Cl)cc1Cl [Bosutinib],1.19
9,CC(=O)OC[C@H]1O[C@@H]([S-])[C@H](OC(C)=O)[C@@H](OC(C)=O)[C@@H]1OC(C)=O.CCP(CC)CC.[Au+] [Auranofin],0.931
10,CC(C)=CC(=O)CCC(=O)N1CCN(Cc2cc3nc(-c4cccc5[nH]ncc45)nc(N4CCOCC4)c3s2)CC1,0.892
11,CC(C)Oc1ccc(-c2nn([C@@H](C)c3oc4ccc(F)cc4c(=O)c3-c3cccc(F)c3)c3ncnc(N)c23)cc1F,0.937
12,CCCCCCCCCC(=O)CC(O)S(=O)(=O)O (configuration not stated) [Sodium houttuyfonate],1.08
13,COc1cc2ncnc(Nc3cccc(Cl)c3F)c2cc1OC(=O)N1CCN(C)C[C@H]1C [AZD3759 hydrochloride],0.911
14,COc1cc2ncnc(Nc3cccc(Cl)c3F)c2cc1OC(=O)N1CCN(C)C[C@H]1C,0.928
15,c1ccc(-c2ccc(C(c3ccccc3)n3ccnc3)cc2)cc1 (configuration not stated) [Bifonazole],0.998
16,COc1cc2c(cc1O)CC[n+]1cc3c(OC)c(OC)ccc3cc1-2 [Jatrorrhizine],0.914
17,CN(C)CCC(c1ccc(Br)cc1)c1ccccn1 (configuration not stated) [Brompheniramine hydrogen maleate],1.04
18,COc1cc2ncnc(Nc3cccc(Br)c3)c2cc1OC,0.798 and 0.939
19,O=C(Nc1cccnc1)c1cc(-c2ccnc(F)c2)ccc1OCc1ccccc1,0.981
20,CCCNC(=O)c1cn2ncnc(Nc3cc(C(=O)NC4CC4)ccc3C)c2c1C,1.03
21,O=C(Oc1cccc(F)c1OC(=O)c1cccc(O)c1)c1cccc(O)c1,1.02

row,SMILES,cell viability
1,CCOC(=O)N1CCC(CN(Cc2ccc(Cl)cc2)Cc2ccc([N+](=O)[O-])s2)C1 (configuration not stated),0.855
2,CCOc1nc2cccc(C(=O)O)c2n1Cc1ccc(-c2ccccc2-c2nnn[nH]2)cc1 [Candesartan],0.958
3,CC[C@H](C)[C@H](N)C(=O)O [isoleucine],1.15
4,CC1OC2(CS1)CN1CCC2CC1 (configuration not stated) [Cevimeline hydrochloride hemihydrate],0.797
5,CC(=O)OCC1=CO[C@@H](OC(=O)CC(C)C)[C@H]2C1=C[C@H](OC(=O)CC(C)(C)OC(C)=O)[C@]21CO1 [Acevaltrate],1.13
6,Nc1ncnc2c1ncn2[C@@H]1O[C@H](CO)[C@@H](O)[C@@H]1O [Vidarabine],0.787
7,COc1cn(-c2ccc(-n3cccn3)cc2F)nc(-c2ccnn2-c2ccccc2)c1=O,0.994
8,CCCc1cc(C)[nH]c(=O)c1CNC(=O)c1cc(-c2ccnc(N3CCN(C)CC3)c2)cc2c1cnn2C(C)C,1.05
9,CN1CCN(CC(=O)N2c3ccccc3C(=O)Nc3cccnc32)CC1 [Pirenzepine dihydrochloride],0.882
10,CC(C)NC[C@@H](C(=O)N1CCN(c2ncnc3c2[C@H](C)C[C@H]3O)CC1)c1ccc(Cl)cc1 [Ipatasertib],0.822
11,CC(C)(C)c1cc(C(C)(C)C)c(NC(=O)c2c[nH]c3ccccc3c2=O)cc1O [Ivacaftor],0.899
12,C=C1C(=O)O[C@@H]2C[C@@]3(C)CCCC(=C)[C@@H]3C[C@H]12 [Isoalantolactone],0.952
13,Cc1ccc([C@@H]2O[C@H](CO)[C@@H](O)[C@H](O)[C@H]2O)cc1Cc1ccc(-c2ccc(F)cc2)s1 [Canagliflozin],0.882
14,Oc1cc2c(cc1O)C(c1ccccc1)CNCC2 (configuration not stated),0.948
15,Cn1c(=O)c2c(ncn2CC2OCCO2)n(C)c1=O [Doxofylline],1.13
16,CC(C)(O)[C@H]1CC[C@H](Nc2ccc3ncc(-c4cccc(C(F)(F)F)c4)n3n2)CC1,0.921
17,COCC(=O)NC/C=C/c1ccc2ncnc(Nc3ccc(Oc4ccc(C)nc4)c(C)c3)c2c1,1.08
18,CC(C)NCC(O)COc1ccc(CC(N)=O)cc1 (configuration not stated) [Atenolol],1.17
19,CCN1CCN(Cc2ccc(NC(=O)Nc3ccc(Oc4cc(NC)ncn4)cc3)cc2C(F)(F)F)CC1,1.23
20,CCOC(=O)[C@H]1O[C@@H]1C(=O)N[C@@H](CC(C)C)C(=O)NCCC(C)C [Aloxistatin],1.08
21,Cc1noc(-c2ccc(-c3ccc(CC(=O)O)cc3)cc2)c1NC(=O)OC(C)c1ccccc1Cl (configuration not stated),1.01

row,SMILES,cell viability
1,CCCCCCCCNc1cc(=O)[nH]c(=O)[nH]1,0.987
2,Nc1nc2c(ncn2COC(CO)CO)c(=O)[nH]1 [Ganciclovir],1.21
3,CC(C)c1cccc(O)c(=O)c1 [β-thujaplicin],0.965
4,Cc1csc(-c2nnc(Nc3ccc(Oc4ncccc4-c4ccnc(N)n4)cc3)c3ccccc23)c1,0.77
5,CNCCc1ccccn1 [Betahistine mesylate],1.09
6,CNCCc1ccccn1 [Betahistine dihydrochloride],1.19
7,CNCCc1ccccn1 [Betahistine],0.973
8,CC1=C(C)C(=O)C(C(CCCCCC(=O)O)c2ccccc2)=C(C)C1=O (configuration not stated) [Seratrodast],1.04
9,COc1c(C)cnc(Cn2cnc3c(Cl)nc(N)nc32)c1C,0.841
10,CN(C)C(=N)NC(=N)N [Metformin hydrochloride],1.07
11,NCCCCCC(=O)O [6-Aminocaproic acid],1.02
12,C[C@H](O)[C@@H](O)[C@@H](O)[C@H](O)C=O [L-(-)-Fucose],1.09
13,c1ccc2c(CCNc3ccc(Nc4ccncc4)cc3)c[nH]c2c1 [Serdemetan],0.995
14,O=C(Cc1ccccc1)Nc1nnc(CCSCCc2nnc(NC(=O)Cc3ccccc3)s2)s1,1.12
15,CCCNC(=O)NS(=O)(=O)c1ccc(Cl)cc1 [Chlorpropamide],1.21
16,COc1ccc(Cl)c(Nc2nc3ccccc3nc2NS(=O)(=O)c2cccc(NC(=O)C(C)(C)N)c2)c1 [Pilaralisib],0.99
17,CC(=O)O[C@]1(C(C)=O)CC[C@H]2[C@@H]3C=C(Cl)C4=CC(=O)CC[C@]4(C)[C@H]3CC[C@@]21C [Chlormadinone acetate],0.721
18,C=CCN(C)CCCCCCOc1ccc(C(=O)c2ccc(Br)cc2)c(F)c1 [Ro 48-8071 fumarate],1.06
19,Cc1cnc(Nc2ccc(OCCN3CCCC3)cc2)nc1Nc1cccc(S(=O)(=O)NC(C)(C)C)c1 [Fedratinib],0.876
